Structures are written as SMILES. The full ranking holds about 2,900 compounds; the median of “NF-kB SEAP reporter activity, fold change vs agonist alone” is about 0.99, and the highest 2% start at about 2.6. The list shows a part of the results.

Test [1] concerns RAW-Dual. The test can be described thus: NF-kB SEAP reporter activity, fold change vs agonist alone; cytotoxicity flag (confluency mask): not cytotoxic; higher = enhanced NF-kB activity. The method in brief: (§1)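 Cytotoxic wells were those whose IncuCyte confluency was below 70% of agonist controls in both mask sets. The cells were RAW-Dual macrophages at 50,000 cells/well in DMEM on 384-well plates, dosed with 50 nL of library stock by pin tool, stimulated with a PRR agonist 1 h later, and kept at 37 °C, 5% CO2 for 20 hours. IRF and NF-κB reporter activity, as fold change over agonist-alone wells, came from supernatant read by QuantiLuc luminescence and QuantiBlue absorbance, respectively.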

In test [2] the test system is RAW-Dual. The test can be described thus: NF-kB SEAP reporter activity, fold change vs agonist alone; higher = enhanced NF-kB activity. Conditions: cytotoxicity flag (confluency mask): not cytotoxic. The method in brief:
as §1

The mark [3] stands for this setting: agonist: ODN 1826 (TLR9) 0.5 ug/mL.
Setting [4] is: agonist: Pam2CSK4 (TLR2/6) 0.1 ug/mL.
Setting [5] is: agonist: Pam3CSK4 (TLR2/1) 0.1 ug/mL.
Setting [6] is: library stock concentration (final ~1000-fold dilution): 10 mM, agonist: Imiquimod (TLR7) […].
Where [7] appears, read: library stock concentration (final ~1000-fold dilution): 10 mM, agonist: MPLA (TLR4) […].

`O=C(NCc1ccncc1)C12CC3CC(C1)CC(c1ccc(Cl)cc1)(C3)C2` (library stock concentration (final ~1000-fold dilution): 10 mM): the “NF-kB SEAP reporter activity” value in test [1] (agonist: LPS (TLR4) 0.1 ug/mL) was 0.536; in test [1] (setting [3]), 0.751; in test [1] (setting [4]), 0.89; in test [1] (setting [5]) it was 0.635.
With `O=C(NCc1ccncc1)C12CC3CC(C1)CC(c1ccc(Cl)cc1)(C3)C2`, the “NF-kB SEAP reporter activity” value in test [2] (setting [6]) amounted to 0.691; in test [2] (setting [7]), 0.826.
Take `CCOc1ccc2c(c1)C(C)=CC(C)(C)N2` (library stock concentration (final ~1000-fold dilution): 10 mM): the “NF-kB SEAP reporter activity” value in test [1] (agonist: LPS (TLR4) 0.1 ug/mL) was 1.1; in test [1] (setting [3]) it was 1.12; in test [1] (setting [4]), 1; in test [1] (setting [5]), 1.05.
Regarding `CCOc1ccc2c(c1)C(C)=CC(C)(C)N2`, the “NF-kB SEAP reporter activity” value came out at 0.871 in test [2] (setting [6]) and 1.09 in test [2] (setting [7]).
Consider `COc1ccc(-c2cnc3c(-c4cccc5ncccc45)cnn3c2)cc1`, for which the “NF-kB SEAP reporter activity” value in test [2] (setting [6]) came to 0.847; in test [2] (setting [7]) it was 0.98.
For `COc1ccc(-c2cnc3c(-c4cccc5ncccc45)cnn3c2)cc1` (library stock concentration (final ~1000-fold dilution): 10 mM), the “NF-kB SEAP reporter activity” value in test [1] (agonist: LPS (TLR4) 0.1 ug/mL) stood at 0.884; in test [1] (setting [3]), 0.868; in test [1] (setting [4]), 0.95; in test [1] (setting [5]) it was 0.725.
As to `CC(/C=C/C=C(\C)C(=O)OC1OC(COC2OC(CO)C(O)C(O)C2O)C(O)C(O)C1O)=C\C=C\C=C(C)\C=C\C=C(/C)C(=O)OC1OC(COC2OC(CO)C(O)C(O)C2O)C(O)C(O)C1O` (configuration not stated), the entries for the “NF-kB SEAP reporter activity” value in test [2] (setting [6]) and in test [2] (setting [7]) were 0.915 and 1.03, respectively.
Regarding `CC(/C=C/C=C(\C)C(=O)OC1OC(COC2OC(CO)C(O)C(O)C2O)C(O)C(O)C1O)=C\C=C\C=C(C)\C=C\C=C(/C)C(=O)OC1OC(COC2OC(CO)C(O)C(O)C2O)C(O)C(O)C1O` (configuration not stated) (library stock concentration (final ~1000-fold dilution): 10 mM), the “NF-kB SEAP reporter activity” value in test [1] (agonist: LPS (TLR4) 0.1 ug/mL) was found to be 1.08; in test [1] (setting [3]) it was 0.948; in test [1] (setting [4]), 1.16; in test [1] (setting [5]), 1.19.
As to `Cc1ccc(C2OC(CO)C(O)C(O)C2O)cc1Cc1ccc(-c2ccc(F)cc2)s1` (configuration not stated) (library stock concentration (final ~1000-fold dilution): 10 mM), the “NF-kB SEAP reporter activity” value was 1.44 in test [1] (agonist: LPS (TLR4) 0.1 ug/mL), 0.941 in test [1] (setting [3]), 0.915 in test [1] (setting [4]) and 0.958 in test [1] (setting [5]).
Consider `Cc1ccc(C2OC(CO)C(O)C(O)C2O)cc1Cc1ccc(-c2ccc(F)cc2)s1` (configuration not stated), for which the entries for the “NF-kB SEAP reporter activity” value in test [2] (setting [6]) and in test [2] (setting [7]) were 1.47 and 0.973, respectively.
Taken in the same sequence, the figures for `COc1ccc(C2OCC3C(c4ccc5c(c4)OCO5)OCC23)cc1OC` (configuration not stated) were 0.81 and 1.
`COc1ccc(C2OCC3C(c4ccc5c(c4)OCO5)OCC23)cc1OC` (configuration not stated) (library stock concentration (final ~1000-fold dilution): 10 mM): the “NF-kB SEAP reporter activity” value in test [1] (agonist: LPS (TLR4) 0.1 ug/mL) worked out at 1.18; in test [1] (setting [3]), 0.814; in test [1] (setting [4]), 1; in test [1] (setting [5]) it was 0.963.
`O=C(COc1ccc(Cl)cc1)NC1CCC(NC(=O)COc2ccc(Cl)cc2)CC1` (configuration not stated) (library stock concentration (final ~1000-fold dilution): 2 mM): the “NF-kB SEAP reporter activity” value in test [1] (agonist: LPS (TLR4) 0.1 ug/mL) was 0.784; in test [1] (setting [3]) it was 1.11; in test [1] (setting [4]), 1.11; in test [1] (setting [5]) it was 0.998.
For the compound `O=C(COc1ccc(Cl)cc1)NC1CCC(NC(=O)COc2ccc(Cl)cc2)CC1` (configuration not stated), the “NF-kB SEAP reporter activity” value in test [2] (library stock concentration (final ~1000-fold dilution): 2 mM, agonist: Imiquimod (TLR7) […]) was found to be 0.951; in test [2] (library stock concentration (final ~1000-fold dilution): 2 mM, agonist: MPLA (TLR4) […]), 0.973.
For the compound `COc1cc2ncnc(Oc3cccc(NC(=O)Nc4cc(C(C)(C)C(F)(F)F)on4)c3)c2cc1OC`, the “NF-kB SEAP reporter activity” value in test [2] (setting [6]) came to 0.423; in test [2] (setting [7]), 0.604.
For `COc1cc2ncnc(Oc3cccc(NC(=O)Nc4cc(C(C)(C)C(F)(F)F)on4)c3)c2cc1OC` (library stock concentration (final ~1000-fold dilution): 10 mM), the “NF-kB SEAP reporter activity” value in test [1] (agonist: LPS (TLR4) 0.1 ug/mL) came to 0.425; in test [1] (setting [3]), 0.386; in test [1] (setting [4]) it was 0.0841; in test [1] (setting [5]), 0.146.
Taken in the same sequence, the figures for `NCC(=O)Nc1ccc(-n2nc(C(F)(F)F)cc2-c2ccc3c(ccc4ccccc43)c2)cc1` (library stock concentration (final ~1000-fold dilution): 10 mM) were 0.301, 0.193, 0.113 and 0.175.
On to `NCC(=O)Nc1ccc(-n2nc(C(F)(F)F)cc2-c2ccc3c(ccc4ccccc43)c2)cc1`, for which the “NF-kB SEAP reporter activity” value came to 0.728 in test [2] (setting [6]) and 0.571 in test [2] (setting [7]).
For the compound `COCCc1ccc(OCC(O)CNC(C)C)cc1.COCCc1ccc(OCC(O)CNC(C)C)cc1.O=C(O)CCC(=O)O` (configuration not stated), the “NF-kB SEAP reporter activity” value in test [2] (setting [7]) worked out at 1.03.
In the case of `COCCc1ccc(OCC(O)CNC(C)C)cc1.COCCc1ccc(OCC(O)CNC(C)C)cc1.O=C(O)CCC(=O)O` (configuration not stated) (library stock concentration (final ~1000-fold dilution): 10 mM), the “NF-kB SEAP reporter activity” value in test [1] (agonist: LPS (TLR4) 0.1 ug/mL) was found to be 1.32; in test [1] (setting [3]) it was 0.801; in test [1] (setting [4]), 0.839; in test [1] (setting [5]), 0.868.
Take `CC1=C(C(=O)OC(C)C)C(c2cccc([N+](=O)[O-])c2)C(C(=O)OC2CN(C(c3ccccc3)c3ccccc3)C2)=C(N)N1` (configuration not stated) (library stock concentration (final ~1000-fold dilution): 10 mM): the “NF-kB SEAP reporter activity” value in test [1] (agonist: LPS (TLR4) 0.1 ug/mL) came out at 0.329; in test [1] (setting [3]), 1.29; in test [1] (setting [4]), 0.583; in test [1] (setting [5]), 0.896.
For the compound `CC1=C(C(=O)OC(C)C)C(c2cccc([N+](=O)[O-])c2)C(C(=O)OC2CN(C(c3ccccc3)c3ccccc3)C2)=C(N)N1` (configuration not stated), the “NF-kB SEAP reporter activity” value stood at 1.17 in test [2] (setting [6]) and 1.09 in test [2] (setting [7]).
Take `COc1cc(C(=O)NS(=O)(=O)c2ccccc2C)ccc1Cc1cn(C)c2ccc(NC(=O)OC3CCCC3)cc12`: the “NF-kB SEAP reporter activity” value in test [2] (setting [6]) was 0.997; in test [2] (setting [7]) it was 1.08.
Take `COc1cc(C(=O)NS(=O)(=O)c2ccccc2C)ccc1Cc1cn(C)c2ccc(NC(=O)OC3CCCC3)cc12` (library stock concentration (final ~1000-fold dilution): 10 mM): the “NF-kB SEAP reporter activity” value in test [1] (agonist: LPS (TLR4) 0.1 ug/mL) worked out at 1.53; in test [1] (setting [3]) it was 1.09; in test [1] (setting [4]) it was 0.973; in test [1] (setting [5]), 0.906.
For `COc1ccc(NC(=O)c2ccc(C(=N)N(C)C)cc2)c(C(=O)Nc2ccc(Cl)cn2)c1.O=C(O)/C=C\C(=O)O`, the “NF-kB SEAP reporter activity” value in test [2] (setting [7]) is 0.953.

The record behind these values is the supplement of paper PMC10037445.
